# Assay results reported in PubChem BioAssay AID504339 (National Center for Advancing Translational Sciences (NCATS), 2011).
# The campaign covered roughly 390,000 compounds. About 17,000 (4.4%) were called active. The inconclusive results got no clear call from the source; some entries with a clear call stand among them for comparison. The call rests on the fitted dose curve; in most records, active means well fitted inhibition curve with a large enough effect; inconclusive means small, poorly fitted or top-dose-only effect; inactive means no such curve, though single readings can be large or run the other way. Potencies of inconclusive entries are doubtful fits and often do not repeat.
# Biological target: Lysine-specific demethylase 4A (Homo sapiens) (UniProt O75164)
# Test: qHTS Assay for Inhibitors of JMJD2A-Tudor Domain; further: nearly all actives have a fitted effect of over 50% in size
# Settings: AlphaScreen JMJD2A-Tudor / H3K4me3 peptide binding; series mostly up to 114 µM
# Potency means the concentration at half of the fitted maximal effect; tags describe the fitted curve by direction and shape.
# UniProt O75164, sequence (O75164 whole entry, looked up, the tested form may be a part): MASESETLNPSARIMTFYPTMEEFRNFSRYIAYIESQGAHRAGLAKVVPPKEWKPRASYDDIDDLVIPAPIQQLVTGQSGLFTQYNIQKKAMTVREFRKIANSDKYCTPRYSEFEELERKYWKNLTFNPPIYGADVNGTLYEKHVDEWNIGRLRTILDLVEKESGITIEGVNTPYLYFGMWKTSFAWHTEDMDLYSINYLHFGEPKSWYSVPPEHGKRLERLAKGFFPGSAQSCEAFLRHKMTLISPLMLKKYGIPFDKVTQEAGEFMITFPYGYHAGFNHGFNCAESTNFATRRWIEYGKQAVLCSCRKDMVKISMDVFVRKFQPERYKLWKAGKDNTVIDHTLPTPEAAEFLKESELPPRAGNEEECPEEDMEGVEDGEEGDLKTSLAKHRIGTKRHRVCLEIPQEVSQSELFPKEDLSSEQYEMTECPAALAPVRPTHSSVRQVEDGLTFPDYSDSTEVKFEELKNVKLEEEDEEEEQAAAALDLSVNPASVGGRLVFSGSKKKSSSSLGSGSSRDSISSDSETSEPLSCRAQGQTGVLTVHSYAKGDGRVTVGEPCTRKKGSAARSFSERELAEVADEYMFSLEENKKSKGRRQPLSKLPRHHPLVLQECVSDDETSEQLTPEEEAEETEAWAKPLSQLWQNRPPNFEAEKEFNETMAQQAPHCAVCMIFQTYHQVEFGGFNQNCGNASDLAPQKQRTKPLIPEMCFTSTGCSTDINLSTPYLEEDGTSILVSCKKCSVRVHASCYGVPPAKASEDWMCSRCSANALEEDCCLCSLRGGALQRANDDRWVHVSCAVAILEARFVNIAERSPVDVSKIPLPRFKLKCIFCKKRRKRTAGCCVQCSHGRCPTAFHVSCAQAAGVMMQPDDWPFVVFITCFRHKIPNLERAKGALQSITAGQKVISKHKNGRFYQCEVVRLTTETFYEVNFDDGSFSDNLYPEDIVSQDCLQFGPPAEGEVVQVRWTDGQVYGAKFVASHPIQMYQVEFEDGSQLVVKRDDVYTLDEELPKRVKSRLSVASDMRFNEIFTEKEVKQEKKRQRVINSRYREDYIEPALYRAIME
row,Structure (SMILES),Potency
1,O=C(Cn1ccnc1)c1ccc(Cl)cc1,"inconclusive: 15.8 µM [inhibitor, full curve, poor fit]"
2,OC(CNc1ccccc1)Cn1ccc2ccccc21 (stereo not given),active: 3.98 µM
3,C/C(=N\NC(=O)c1cccc(Br)c1)c1cccc(NC(=O)c2ccc(C)o2)c1,"inconclusive: 79.4 µM [inhibitor, single point]"
4,Cc1nnc(N/N=C\c2ccc(-c3cccc(C(=O)O)c3)o2)n1N,active: 25.1 µM
5,C=CCOc1cccc(C2C(C(=O)c3cc4ccccc4o3)=C(O)C(=O)N2c2cc(C)on2)c1 (stereo not given),"inconclusive: 44.7 µM [inhibitor, partial curve, poor fit]"
6,COc1ccc(Nc2oc(COc3ccccc3OC)nc2C#N)cc1,"inconclusive: 44.7 µM [inhibitor, partial curve]"
7,Cc1cc(C(=O)NNC(=O)c2c(-c3c(Cl)cccc3Cl)noc2C)no1,inactive
8,O=C(NCCCn1ccnc1)c1ccco1,"inconclusive: 22.4 µM [inhibitor, full curve, poor fit]"
9,COc1cccc(N(CC(=O)N2CCCCCC2)S(C)(=O)=O)c1,inactive
10,CCOC(=O)C(C)(C)Sc1ncnc2nc[nH]c12,inactive
11,COC(=O)C1=C(C(=O)OC)[C@@H]2N(C)c3ccccc3[C@@]23C[C@@H](C(=O)OC)N(C(=O)c2cc(C)oc2C)C3=N1,"inconclusive: 56.2 µM [inhibitor, partial curve]"
12,C/C(=N/O)c1no[n+]([O-])c1/C(C)=N\O,inactive
13,Cc1cc(-c2ccccc2)oc(=O)c1NC(=O)c1ccccc1,"inconclusive: 89.1 µM [inhibitor, single point]"
14,CCOc1ccc(N=Nc2ccc(O)c3ncccc23)cc1,"inconclusive: 7.94 µM [inhibitor, full curve]"
15,CCOC(=O)c1c(C)[nH]c(C)c1S(=O)(=O)N1CCCC(C(=O)N2CCN(c3cc(C)ccc3C)CC2)C1 (stereo not given),"inconclusive: 56.2 µM [inhibitor, partial curve]"
16,O=C(O)c1ccc(NCCC2=CCCCC2)c([N+](=O)[O-])c1,inactive
17,CN1CCN(CCNC(=O)Cn2c(=O)c3cccn3c3ccc(F)cc32)CC1,inactive
18,COc1cc(C#Cc2c(-c3cncn3C)n(C)c3ccc(-c4ccc(OC)nc4)cc23)cc(OC)c1,active: 14.1 µM
19,COc1ccccc1C(=O)NC(=S)Nc1ccc(S(=O)(=O)N2CCN(C)CC2)cc1,"inconclusive: 50.1 µM [inhibitor, partial curve]"
20,CCOc1ccccc1CNC(=O)CCCN1C(=O)CCn2nc(-c3cccn3C)cc21,"inconclusive: 56.2 µM [inhibitor, partial curve]"
21,O=c1[nH]c(S)c(/C=C2\C=Nc3ccccc32)s1,"inconclusive: 22.4 µM [inhibitor, full curve]"
22,NCC(=O)c1cccc2ccc[n+]([O-])c12,inactive
23,CCC(C)NCCCOc1ccc([N+](=O)[O-])cc1 (stereo not given),active: 79.4 µM
24,Cc1ccc(Nc2nc3ccccc3c(=O)[nH]2)cc1C,inactive
25,CCC(=O)N1CCc2cc(S(=O)(=O)NC(CC(C)C)C(=O)Nc3ccc(CC)cc3)ccc21 (stereo not given),inactive

row,Structure (SMILES),Potency
1,COc1ccc(NC(=O)CSc2ccc3c(c2)OCCO3)cc1,inactive
2,COc1ccc2nc(NC(=O)c3cnccn3)sc2c1,"inconclusive: 56.2 µM [inhibitor, partial curve]"
3,CSc1nn(Cc2cccc(F)c2)c(N(C(C)=O)C(C)=O)c1S(=O)(=O)c1ccccc1,inactive
4,O=C(CN1CCCCC1)N1CCCc2ccccc21,active: 2.51 µM
5,O=C(NC(=S)Nc1ncccn1)c1ccccc1Br,"inconclusive: 39.8 µM [inhibitor, single point]"
6,COc1ccc(C(=O)N2CCN(C)C(=O)[C@@H]2C)cc1OC1CCN(C(C)C)CC1,inactive
7,CCCCn1c(N)c(N(C)C(=O)c2cccc(-n3cnnn3)c2)c(=O)[nH]c1=O,inactive
8,CNC(=S)NNC(=O)COc1ccccc1C,active: 20 µM
9,COc1cc(C2Nc3ccccc3C(=O)N2Cc2ccccc2)ccc1OCc1ccccc1 (stereo not given),inactive
10,CCOc1ccc(C(=O)CSCCC(=O)O)cc1,inactive
11,COc1ccccc1NC(=O)Cc1csc(NC(=S)Nc2ccc(C)cc2)n1,inactive
12,CCc1ccc(CNc2nc3nc(C)c(Cc4ccccc4)c(=O)n3[nH]2)cc1,"inconclusive: 79.4 µM [inhibitor, partial curve]"
13,CCOc1ccc(S(=O)(=O)N2CCCCC2)cc1NC(=O)CCc1ccc(OC)cc1,inactive
14,CCc1ccc(CN2CCc3nc(Nc4ccc5c(c4)OCCO5)ncc3C2)cc1,active: 28.2 µM
15,COc1ccc(CCNc2oc(COc3ccc(Cl)cc3)nc2C#N)cc1OC,"inconclusive: 17.8 µM [inhibitor, full curve]"
16,CCN(C(=O)c1cn(C)c(=O)c2cc(OC)c(OC)cc12)c1cc(C)ccc1C,"inconclusive: 4.47 µM [inhibitor, single point]"
17,O=C(Nc1ncc2c(n1)-c1ccccc1OC2)c1cccc([N+](=O)[O-])c1,inactive
18,COc1ccc(Nc2nnc(-c3ccc(C)c(S(N)(=O)=O)c3)c3ccccc23)cc1,"inconclusive: 50.1 µM [inhibitor, partial curve]"
19,CCOc1cc(C(N)=O)cc(Cl)c1OCC,"inconclusive: 14.1 µM [inhibitor, single point]"
20,CCOC(=O)Cc1csc(NC(=O)CSc2cc(Cl)ccc2Cl)n1,inactive
21,CCOC(=O)c1ccc(NC(=O)C2CCCN(c3ncnc4onc(C)c34)C2)cc1 (stereo not given),inactive
22,Cc1ccc(C(=O)Nc2nc(-c3ccccn3)cs2)o1,active: 50.1 µM
23,C/C=C\C=C/C(=O)Nc1cccc(C2=NOC3(C2)C[C@@H](C(N)=O)N(C(=O)/C=C/CC)C3)c1 (stereo not given in full),"inconclusive: 89.1 µM [inhibitor, partial curve]"
24,Cc1ccc(NC(=O)Cn2c(=O)oc3cc(S(=O)(=O)N4CCCC4)ccc32)cc1F,inactive
25,CC(=O)c1c(C)[nH]c(C(=O)COC(=O)CCNS(=O)(=O)c2ccc(C)c(C)c2)c1C,"inconclusive: 79.4 µM [inhibitor, partial curve]"
